Measurements: PubChem BioAssay AID1645882 (National Center for Advancing Translational Sciences (NCATS), 2021)
Among all 16,000 compounds or so, about 120 (0.75%) were called active. Another 4% or so got no clear call; they are omitted. Calls follow the shape of the dose curve; as a rule, active = well fitted inhibition curve with a large enough effect; inconclusive = small, poorly fitted or top-dose-only effect; inactive = no such curve, though single readings can be large or run the other way. The list shows a part of the results.

What follows are compounds tested against Rap guanine nucleotide exchange factor 3 (Homo sapiens) (UniProt O95398) (assay: Validation qHTS for antagonist of cAMP-regulated guanine nucleotide exchange factor 3 (EPAC1)). Conditions: EPAC1 Rap1B-BODIPY-GDP exchange, fluorescence; series mostly up to 150 µM; activity change, negative = inhibition: at the top concentration.
How it was run: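 EPAC1 (100 nM) mixed with 250 nM RAP1B-BODIPY-GDP and 50 uM GDP; compounds in concentration series, 5 min at room temperature. Fluorescence (ex 480/em 540 nm) read every 5 min for 30 min; normalized to ATA control and DMSO.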
Also: nearly all actives have a fitted effect of over 75% in size.
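For activity change, negative = inhibition in this document: plate controls were DMSO for no effect and ATA control for full effect.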
Potency is read from the fitted curve at half-maximal effect.

UniProt O95398, sequence (O95398 whole entry, looked up): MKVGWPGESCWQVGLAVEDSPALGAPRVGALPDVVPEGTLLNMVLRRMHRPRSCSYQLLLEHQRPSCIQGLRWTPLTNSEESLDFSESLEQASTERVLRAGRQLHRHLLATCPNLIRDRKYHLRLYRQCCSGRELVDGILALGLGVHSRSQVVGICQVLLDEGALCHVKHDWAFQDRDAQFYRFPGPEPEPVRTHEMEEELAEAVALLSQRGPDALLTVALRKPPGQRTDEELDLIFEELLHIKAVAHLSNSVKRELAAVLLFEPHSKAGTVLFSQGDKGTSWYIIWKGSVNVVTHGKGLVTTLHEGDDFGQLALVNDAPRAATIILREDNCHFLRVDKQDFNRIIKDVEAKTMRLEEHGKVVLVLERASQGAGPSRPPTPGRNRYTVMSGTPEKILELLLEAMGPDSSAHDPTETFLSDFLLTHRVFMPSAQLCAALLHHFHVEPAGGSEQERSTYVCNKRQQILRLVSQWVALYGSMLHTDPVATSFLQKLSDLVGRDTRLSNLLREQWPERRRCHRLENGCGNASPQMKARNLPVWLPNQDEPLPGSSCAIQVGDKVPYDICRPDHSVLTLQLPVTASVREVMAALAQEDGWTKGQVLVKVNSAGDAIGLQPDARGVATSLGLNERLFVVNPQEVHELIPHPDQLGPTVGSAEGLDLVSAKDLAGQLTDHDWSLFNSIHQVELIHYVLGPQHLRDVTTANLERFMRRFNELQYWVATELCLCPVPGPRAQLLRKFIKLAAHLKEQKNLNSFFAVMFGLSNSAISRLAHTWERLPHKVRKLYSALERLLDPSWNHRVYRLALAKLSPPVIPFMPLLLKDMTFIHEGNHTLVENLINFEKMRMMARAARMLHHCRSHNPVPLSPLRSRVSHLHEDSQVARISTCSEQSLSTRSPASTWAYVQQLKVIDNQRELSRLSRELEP

| Structure (SMILES) | activity change, negative = inhibition | Potency |
| --- | --- | --- |
| O=S(=O)(c1ccc(Cl)cc1)c1ccc(Cl)cc1 | inactive: 30% [at 320 µM] |  |
| c1ccc(N2CCC3(CCNCC3)CC2)cc1 | inactive: -1.07% |  |
| COC(=O)C(Cl)C(=O)OC | inactive: 39.8% |  |
| O=C(c1ccncc1)N1CCC2(CC1)CN(Cc1ccccc1)C2 | inactive: 16.5% |  |
| CN1CC[C@@]2(C)c3cc(OC(=O)Nc4ccccc4)ccc3N(C)[C@@H]12 | inactive |  |
| Oc1ccc(Cl)cc1 | inactive |  |
| CC(C)c1c(CN(C)C(C)Cc2ccccc2)n(C)n(-c2ccccc2)c1=O (stereo unspecified) | inactive: 3.06% [at 75.8 µM] |  |
| N#CCCN | inactive: -8.89% [at 75.8 µM] |  |
| Clc1ccc(CCC(Cn2ccnc2)Sc2c(Cl)cccc2Cl)cc1 (stereo unspecified) | inactive: 7.43% [at 75.8 µM] |  |
| ClCCN(CCCl)c1ccc(C=Nc2ccc(/C=C/c3ccncc3)cc2)cc1 | inactive: 7.95% |  |
| CCON=O | inactive: -8.57% |  |
| CC1CC(C)C(=O)[C@H](C(O)CC2CC(=O)NC(=O)C2)C1 (stereo partly specified) | inactive: 9.45% |  |
| CC(C)NP(=O)(NC(C)C)OP(=O)(NC(C)C)NC(C)C | inactive: -6.69% [at 75.8 µM] |  |
| C[N+](C)(C)CCOC(=O)C(O)(c1ccccc1)c1ccccc1 | inactive: 9% |  |
| C[C@@H]1O[C@H](O[C@@H]2C[C@@H](O)[C@]3(CO)[C@H]4[C@H](O)C[C@]5(C)[C@@H](C6=CC(=O)OC6)CC[C@@]5(O)[C@@H]4CC[C@]3(O)C2)[C@@H](O)[C@H](O)[C@H]1O | inactive: 6.89% |  |
| Cc1c2ccncc2c(C)c2c1[nH]c1ccccc12 | inactive |  |
| CC(C)(O)[C@@H]1C2OC(=O)[C@@H]1[C@]1(O)C[C@H]3O[C@]34C(=O)O[C@H]2[C@]14C (tested in a mixture with another compound) | inactive: -1.26% [at 75.8 µM] |  |
| CC(=O)OCC(=O)[C@H]1CC[C@H]2[C@@H]3CC[C@H]4C[C@H](O)CC[C@]4(C)[C@H]3C(=O)C[C@]12C | inactive: 1.34% [at 75.8 µM] |  |
| CC(=O)NBr | inactive: -9.89% [at 75.8 µM] |  |
| C=CCN1CCC2(C)c3cc(O)ccc3CC1C2C (stereo unspecified) | inactive: 11.9% |  |
| CC(=O)Oc1c2c(c(CC=C(C)C)c3c1C(=O)C1=CC4CC5C(C)(C)OC(C/C=C(\C)C(=O)O)(C4=O)[C@]15O3)OC(C)(CCC=C(C)C)C=C2 (stereo partly specified) |  | active: 44.7 µM |
| CCC1(c2cnc[nH]2)Cc2ccccc2C1 | inactive |  |
| O=C(O)COc1ccccc1 | inactive: -13.9% |  |
| CN(C)c1ccc(C=C2C(=O)NC(=O)NC2=O)cc1 | inactive: -2.79% |  |
| CC1=C2CC3C(CC=C4C[C@@H](O)CC[C@@]43C)[C@@H]2CC[C@]12O[C@@H]1C[C@H](C)CN[C@H]1[C@H]2C (stereo partly specified) | inactive: 17.8% [at 201 µM] |  |
| Cc1ccc(C[N+](C)(C)C)o1 | inactive |  |

| Structure (SMILES) | activity change, negative = inhibition | Potency |
| --- | --- | --- |
| CC1(C)C(O)CC(O)[C@]2(C)C1CC(O)[C@]1(C)C2CC[C@@]2(C)C(c3ccoc3)OC(=O)C3O[C@]312 (stereo partly specified) | inactive: 0.0609% |  |
| CC(C)(Cc1c[nH]c2ccc(Cl)cc12)NCCOc1ccccc1OCC1CC1 | inactive |  |
| C[C@]12C=CC(=O)C=C1CC[C@@H]1[C@@H]2CC[C@]2(C)OC(=O)CC[C@@H]12 | inactive: 24.9% |  |
| CCCCC/C=C\C=C\[C@H](CCCCCCCC(=O)O)OO | inactive: -12.7% [at 1.57 µM] |  |
| C[C@]12CC[C@@H]3c4ccc(OC(=O)N(CCCl)CCCl)cc4CC[C@H]3[C@@H]1CC[C@@H]2O | inactive: -29.5% |  |
| CCCN1CCc2cccc3c2[C@H]1Cc1ccc(O)c(O)c1-3 | inactive: 4.39% [at 75.8 µM] |  |
| NC(N)=NOCCC(N)C(=O)O (stereo unspecified) | inactive |  |
| CN1C2CCC1CC(C(=O)OC(CO)c1ccccc1)C2 (stereo unspecified) | inactive: 14.1% |  |
| CC1N=C(N)OC1c1ccccc1 (stereo unspecified) | inactive: 13.9% [at 320 µM] |  |
| Cc1nccc2c1[nH]c1ccccc12 | inactive |  |
| CCCN(CCC)C1CCc2cccc(O)c2C1 (stereo unspecified) | inactive |  |
| O=C(Nc1ccccc1)N1CC2(CCN(C(=O)Oc3ccccc3)CC2)C1 | inactive: 15.1% |  |
| O=c1oc2ccccc2c(O)c1Cc1c(O)c2ccccc2oc1=O | inactive |  |
| c1cc(CN2CC3(CCNCC3)C2)ccn1 | inactive: 5.56% |  |
| OCCN(CCO)CCO | inactive: 4.77% |  |
| C[C@]12CC[C@H](O)CC1=CCC1C2CC[C@]2(C)C(=O)CC[C@@H]12 (stereo partly specified) | inactive: 16.3% |  |
| c1cncc(C2=NCCC2)c1 | inactive: 24.4% |  |
| O=S(=O)(O)c1cc(O)ccc1O | inactive: 16.6% [at 75.8 µM] |  |
| O=[N+]([O-])c1cc([As](=O)(O)O)ccc1O | inactive |  |
| CCN1C[C@@]2(OC(=O)c3ccccc3NC(C)=O)CCC(OC)[C@@]34C5CC6C(OC)C[C@@](O)(C(CC23)[C@@H]14)C5(O)C6OC (stereo partly specified) | inactive: 15.8% |  |
| O=[N+]([O-])c1cc(I)c(O)c(I)c1 | inactive: 21.3% |  |
| c1ccc2c(c1)[I+]c1ccccc1-2 | inactive |  |
| COc1cc2c(cc1OC)[C@]13CCN4CC5=CCOC6CC(=O)N2[C@@H]1[C@@H]6C5C[C@@H]43 (stereo partly specified) | inactive: 9.89% |  |
| CCc1cccc(CC)c1N(COC)C(=O)CCl | inactive: -2.26% |  |
| COC(C/C=C/C=C/CC/C=C\CC(C)/C=C\C(=C/C(=O)O)CC(=O)O)/C(C)=C\C=C(/C)C(=O)O (stereo unspecified) | inactive: 14.1% [at 15.3 µM] |  |
